# Measurements from PubChem BioAssay AID602233 (National Center for Advancing Translational Sciences (NCATS), 2012).
# Screen size: about 380,000 compounds; about 170 (0.045%) were called active. Inconclusive means that the source gave no clear call. Such entries were picked first, then a sample of the others. The call rests on the fitted dose curve; in most records, active means well fitted inhibition curve with a large enough effect; inconclusive means small, poorly fitted or top-dose-only effect; inactive means no such curve, though single readings can be large or run the other way. No potency is given beside an inconclusive call; the fits are too rough.
# Biological target: Phosphoglycerate kinase, glycosomal (Trypanosoma brucei brucei) (UniProt P07378)
# Assay: qHTS Assay to Find Inhibitors of Phosphoglycerate Kinase; further: nearly all actives have a fitted effect of over 60% in size
# Details: PGK/GAPDH coupled, Kinase-Glo luminescence, 60 min; series mostly up to 57.5 µM
# How it was run: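 Recombinant glycosomal PGK reaction used 1,3-bisphosphoglycerate generated in-well by GAPDH (100nM final) in 100mM TEA pH 7.6, 5mM MgCl2, 0.01% Tween-20. After 60 minutes at room temperature, ATP was read by Kinase-Glo Plus luminescence end-point.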
# Potency means the concentration at half of the fitted maximal effect; tags describe the fitted curve by direction and shape.
row,Compound,Potency
1,O=c1cc2nc(-c3ccccc3F)nc(SCc3ccc(Br)cc3)n2[nH]1,"inconclusive [inhibitor, partial curve, poor fit]"
2,O=C(CSc1nc2ccccc2o1)N/N=C/c1ccc(O)c(O)c1,"inconclusive [inhibitor, partial curve, poor fit]"
3,Cc1cccc(NC(=O)CSc2nc3ccccc3nc2N2CCCC2)c1C,inactive
4,NS(=O)(=O)c1ccc(CCNC(=O)c2cc3ccccc3s2)cc1,"inconclusive [inhibitor, single point]"
5,Cc1coc2cc3oc(=O)c(CCC(=O)NCCCN4CCCC4=O)c(C)c3cc12,inactive
6,COc1ccc(C=NNc2ccc(S(=O)(=O)Nc3ccccc3C(=O)O)cc2[N+](=O)[O-])c(OC)c1,"inconclusive [inhibitor, partial curve, poor fit]"
7,Brc1ccc(N=Nc2ccc3ccccc3n2)cc1,"inconclusive [inhibitor, partial curve, poor fit]"
8,CCn1ncc(C(=O)Nc2cc(C)on2)c1C,"inconclusive [inhibitor, single point]"
9,COc1cc(/C=C2\SC(=O)N(CC(=O)Nc3ccc(C)cc3)C2=O)cc(Cl)c1OCC(=O)O,"inconclusive [inhibitor, full curve]"
10,O=C(Nc1ccccn1)c1cc2ccccc2o1,"inconclusive [inhibitor, partial curve, poor fit]"
11,COC(=O)c1ccc(NC(=S)N2CCN(Cc3ccccc3Cl)CC2)cc1,"inconclusive [inhibitor, single point]"
12,CC(C)=C1C(=O)NN(c2ccc(C)c(Cl)c2)C1=O,inactive
13,O=C(O)c1ccc(-n2c(-c3cc(-c4ccco4)[nH]n3)n[nH]c2=S)cc1,"inconclusive [inhibitor, partial curve, poor fit]"
14,Cc1ccc(C(=O)O)cc1-c1ccc(C=C2C(=O)c3ccccc3C2=O)o1,"inconclusive [inhibitor, partial curve, poor fit]"
15,Cc1nnc(NC(=O)C2CCCN(c3ncccn3)C2)s1 (stereo not drawn),"inconclusive [inhibitor, partial curve, poor fit]"
16,COCC(=O)OC1CCn2c1nc1c2C(=O)C(C)=C(NC(C)=O)C1=O (stereo not drawn),inactive
17,CCOC(=O)C1CCN(c2nc(N)c3c(N)nc(SCC(=O)O)cc3c2C#N)CC1,"inconclusive [inhibitor, single point]"
18,Cc1sc2cc3c(c(C(=O)c4ccccc4)[n+]2c1C)-c1cccc2cccc-3c12,inactive
19,Cc1ccc(C(=O)NNC(=S)NC(=O)COc2ccccc2)cc1,inactive
20,Cc1ccccc1N=CC1=C(O)c2ccccc2C1=O,"inconclusive [inhibitor, partial curve, poor fit]"
21,O=C(O)c1cc(-c2ccc(/C=C3\NC(=O)N(c4ccc(Cl)cc4)C3=O)o2)ccc1Cl,active: 31.6 µM
22,Oc1ccc(C[C@H]2CNCCN2CCc2cccc3ccccc23)cc1,"inconclusive [inhibitor, partial curve, poor fit]"

row,Compound,Potency
1,Cc1cccc(N2CCN(C(=O)c3cccc(S(=O)(=O)N4CCCCC4)c3)CC2)c1C,inactive
2,C#CCOCCOCCOCCNc1nc(N2CCN(C(=O)[C@H](Cc3cc4ccccc4[nH]3)n3cc([C@@H](N)CC(C)C)nn3)CC2)nc(N2CCN(C(=O)[C@H](Cc3cc4ccccc4[nH]3)n3cc([C@@H](N)CC(C)C)nn3)CC2)n1,inactive
3,Cc1c(Cl)cccc1NC(=O)Cn1c(=O)nc(-c2ccccc2)c2ccccc21,inactive
4,Cc1ccc2onc(CC(=O)N(C)c3ccccc3)c2c1,inactive
5,Cc1ccc2nc(-c3ccc(O)c(O)c3)cn2c1,"inconclusive [inhibitor, single point]"
6,CC1OC(Oc2c(-c3cc(O)c(O)c(O)c3)oc3cc(O)cc(O)c3c2=O)C(O)C(O)C1O (stereo not drawn),"inconclusive [inhibitor, partial curve, poor fit]"
7,Cc1cc(C(=O)O)ccc1-c1ccc(/C=C2\NC(=O)N(Cc3ccc(F)cc3)C2=O)o1,"inconclusive [inhibitor, single point]"
8,O=c1cc(-c2ccc(O)c(O)c2)oc2cc(O)c(C3OC(CO)C(O)C(O)C3O)c(O)c12 (stereo not drawn),"inconclusive [inhibitor, partial curve, poor fit]"
9,CC(C)c1ccc(/C=C/c2[nH]c(=O)[nH]c(=O)c2[N+](=O)[O-])cc1,inactive
10,O=C(N/N=C/c1ccc(N2CCOCC2)cc1)c1ccccn1,"inconclusive [inhibitor, single point]"
11,Oc1ccc(/C=N/Nc2nccnc2Cl)cc1,active: 11.2 µM
12,O=C1/C(=C/c2cccnc2)CCC/C1=C\c1cccnc1,inactive
13,Cc1cc(N/N=C/c2ccc(O)cc2)nc(NS(=O)(=O)c2ccccc2)n1,active: 25.1 µM
14,COc1ccc(C(=O)O/N=C(\C)c2nccs2)cc1,"inconclusive [inhibitor, partial curve, poor fit]"
15,Cc1cc(NC(=O)C2CC=CCC2C(=O)O)no1 (stereo not drawn),"inconclusive [inhibitor, partial curve]"
16,O=C1NC2(CCCCCC2)C(=O)N1Cc1cccc(Cl)c1,inactive
17,Cc1oc(-c2cccc(Br)c2)nc1Cn1c(=O)cc(-c2ccccc2)c2c(C)nn(C)c21,"inconclusive [inhibitor, single point]"
18,CCCc1c(C)[nH]c2ccc(C(=O)O)cc2c1=S,"inconclusive [inhibitor, single point]"
19,COc1ccc(OC)c(-c2nc(C(N)=O)c3c(n2)n(-c2ccc4c(c2)OCO4)c(=O)n3C)c1,inactive
20,N#C/C(=C\c1ccc(O)c(O)c1)C(=O)c1ccc(O)c(O)c1,active: 1.12 µM
21,CCOc1ccc(OCCC(=O)OCC(=O)Nc2cc(OCC)c(N3CCOCC3)cc2OCC)cc1,"inconclusive [inhibitor, partial curve, poor fit]"
